Laboratory results from PubChem BioAssay AID504832 (National Center for Advancing Translational Sciences (NCATS), 2011).
Hit rate of the full screen: of about 310,000 compounds, about 18,000 (5.8%) were called active. Inconclusive means that the source gave no clear call. Such entries were picked first, then a sample of the others. Calls come from the whole dose curve; as a rule, active = well fitted inhibition curve with a large enough effect; inconclusive = small, poorly fitted or top-dose-only effect, or another doubt; inactive = no such curve, though single readings can be large or run the other way. Potencies of inconclusive entries are left out as doubtful fits.

Test: Primary qHTS for delayed death inhibitors of the malarial parasite plastid, 48 hour incubation
Settings: P. falciparum luciferase growth in erythrocytes; series mostly up to 28.7 µM
Procedure, shortened: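 Firefly luciferase activity from engineered P. falciparum reports growth; inhibitors lower the luminescent signal. Cultures contained 2% hematocrit erythrocytes at 0.1% final parasitemia.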
Potency is the fitted concentration of half-maximal effect; tags give direction and shape of the fitted curve.

Row | SMILES | Potency
1 | Cc1ccccc1NC(=O)CSc1nc(Nc2ccccc2)nc(N2CCOCC2)n1 | inconclusive [inhibitor, single point]
2 | C=CCn1c(COc2cccc(C)c2C)nnc1SCC(=O)N1CCN(c2ccccc2)CC1 | inconclusive [inhibitor, single point]
3 | C/C(=N\NS(=O)(=O)c1ccc(Cl)cc1)c1ccc(O)cc1 | inactive
4 | COCCCn1c(SCC(=O)N2CCOCC2)nc2cc(Cl)ccc2c1=O | active: 10.4 µM
5 | N/C(=N\OC(=O)c1ccc2ccccc2c1)c1ccccc1Cl | inconclusive [inhibitor, single point]
6 | Cc1ccc(N2C(=O)c3ccccc3C2Nc2cccnc2)nc1 (stereo unspecified) | inactive
7 | O=C(NCC1(N2CCOCC2)CCCCC1)c1cccc(S(=O)(=O)Nc2ccc(F)cc2)c1 | active: 10.4 µM
8 | Cc1cc(C)cc(NC(N)=S)c1 | inactive
9 | CC(C)Cn1c(CN(C)Cc2ccccc2)nc2c1c(=O)n(C)c(=O)n2C | inactive
10 | O=C(CSc1nc(-c2ccccc2Cl)ns1)c1ccc(Cl)cc1 | inactive
11 | C[C@H]1CN=C(Nc2ccccc2)N1CCCC1CCCC1 | inconclusive [inhibitor, partial curve, poor fit]
12 | CC(C)c1nc2n[nH]c(N)c2c2c1CSC(C)(C)C2 | inconclusive [inhibitor, single point]
13 | O=C(Nc1ccc(F)cc1)C(c1ccccc1)N1CCN(CC(=O)N2CCCC2)CC1 (stereo unspecified) | inconclusive [inhibitor, single point]
14 | CCOc1ccc(S(=O)(=O)Nc2ccc(C(=O)N3CCC3)cc2)cc1 | inconclusive [inhibitor, single point]
15 | Cc1cc2cc(CCNC(=O)CC(C)(C)C)c(=O)[nH]c2cc1C | inconclusive [inhibitor, partial curve, poor fit]
16 | O=S(=O)(NCC1NCCc2ccccc21)c1ccccc1 (stereo unspecified) | inconclusive [inhibitor, partial curve, poor fit]
17 | CC(C)C[C@H]1CN=C(Nc2ccccc2)N1CC1CCC(C(C)(C)C)CC1 (stereo partly specified) | active: 8.28 µM
18 | CCCCOc1ccc(NC(=O)CN2CCN(C(=O)OCC)CC2)cc1 | active: 9.28 µM
19 | CCOc1ccc(N2CC(C(=O)NCCN3C(=O)S/C(=C\c4cccnc4)C3=O)CC2=O)cc1 (stereo unspecified) | inconclusive [inhibitor, full curve, poor fit]
20 | O=C(/C=C/c1ccccc1)Nc1cccc(C(=O)O)c1 | active: 0.262 µM
21 | CCc1ccc(C2C(C#N)=C(N)N(N(C)C)C3=C2C(=O)CCC3)s1 (stereo unspecified) | inconclusive [inhibitor, single point]
